# Assay results: publication PMC12820563
# The list shows a part of the results. The list includes weakly bound sequences.
# Molecular target: T1, MBP-FoxP3dN (UniProt Q99JB6)
# T1 sequence: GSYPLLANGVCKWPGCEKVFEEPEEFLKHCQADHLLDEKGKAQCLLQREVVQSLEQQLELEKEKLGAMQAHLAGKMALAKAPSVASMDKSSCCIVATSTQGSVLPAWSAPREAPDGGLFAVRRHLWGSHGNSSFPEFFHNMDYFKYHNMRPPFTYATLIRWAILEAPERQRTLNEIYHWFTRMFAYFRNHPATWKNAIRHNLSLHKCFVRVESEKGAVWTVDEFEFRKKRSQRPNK
# Assay: PD-seq (MBP pull-down with sequencing)
# Conditions: 20 mM Tris-HCl pH 7.5, 100 mM NaCl, 1.5 mM MgCl2, 0.4 uM protein, 0.1 uM dsDNA library, 30 min, room temperature, amylose pull-down; high values mean tight binding; double strand, one strand shown
row,Sequence,binding signal (RPM ratio (pull-down/input))
1,GATGATTGTTCTCCCAGCTGATGAATTACTACATTCGAGTAAACAAATTTTCCTAATCTTTCTGTTCAAGCGCCATCTAC,0.586
2,GATGATTGTTCTCCCAGCTGATGAATTCCTCACGTCGAGTAAACAAATTTTCCTAATCTTTCTGTTCAAGCGCCATCTAC,0.269
3,GATGATTGTTCTCCCAGCTGATGAATTGGTGGATTCGAGTAAACAAATTTTCCTAATCTTTCTGTTCAAGCGCCATCTAC,0.614
4,GATGATTGTTCTCCCAGCTGATGAATTTGGGTTCTCGAGTAAACAAATTTTCCTAATCTTTCTGTTCAAGCGCCATCTAC,0.955
5,GATGATTGTTCTCCCAGCTGATGAATTGCTGTAGTCGAGTAAACAAATTTTCCTAATCTTTCTGTTCAAGCGCCATCTAC,0.741
6,GATGATTGTTCTCCCAGCTGATGAATTATGTTTTTCGAGTAAACAAATTTTCCTAATCTTTCTGTTCAAGCGCCATCTAC,6.33
7,GATGATTGTTCTCCCAGCTGATGAATTTAACGGGTCGAGTAAACAAATTTTCCTAATCTTTCTGTTCAAGCGCCATCTAC,0.287
8,GATGATTGTTCTCCCAGCTGATGAATTTCATGAGTCGAGTAAACAAATTTTCCTAATCTTTCTGTTCAAGCGCCATCTAC,0.45
9,GATGATTGTTCTCCCAGCTGATGAATTTGGCTCATCGAGTAAACAAATTTTCCTAATCTTTCTGTTCAAGCGCCATCTAC,0.584
10,GATGATTGTTCTCCCAGCTGATGAATTTGCCGCATCGAGTAAACAAATTTTCCTAATCTTTCTGTTCAAGCGCCATCTAC,1.35
11,GATGATTGTTCTCCCAGCTGATGAATTGCGCGTATCGAGTAAACAAATTTTCCTAATCTTTCTGTTCAAGCGCCATCTAC,2.06
12,GATGATTGTTCTCCCAGCTGATGAATTCACCTGCTCGAGTAAACAAATTTTCCTAATCTTTCTGTTCAAGCGCCATCTAC,0.292
13,GATGATTGTTCTCCCAGCTGATGAATTCCGACCCTCGAGTAAACAAATTTTCCTAATCTTTCTGTTCAAGCGCCATCTAC,0.394
14,GATGATTGTTCTCCCAGCTGATGAATTAGCCGAGTCGAGTAAACAAATTTTCCTAATCTTTCTGTTCAAGCGCCATCTAC,0.207
15,GATGATTGTTCTCCCAGCTGATGAATTTTCTTATTCGAGTAAACAAATTTTCCTAATCTTTCTGTTCAAGCGCCATCTAC,0.67
16,GATGATTGTTCTCCCAGCTGATGAATTGTACCAGTCGAGTAAACAAATTTTCCTAATCTTTCTGTTCAAGCGCCATCTAC,0.338

row,Sequence,binding signal (RPM ratio (pull-down/input))
1,GATGATTGTTCTCCCAGCTGATGAATTAGCGCCATCGAGTAAACAAATTTTCCTAATCTTTCTGTTCAAGCGCCATCTAC,2.85
2,GATGATTGTTCTCCCAGCTGATGAATTAAAACGTTCGAGTAAACAAATTTTCCTAATCTTTCTGTTCAAGCGCCATCTAC,0.327
3,GATGATTGTTCTCCCAGCTGATGAATTACCCATATCGAGTAAACAAATTTTCCTAATCTTTCTGTTCAAGCGCCATCTAC,0.392
4,GATGATTGTTCTCCCAGCTGATGAATTCGACATGTCGAGTAAACAAATTTTCCTAATCTTTCTGTTCAAGCGCCATCTAC,0.986
5,GATGATTGTTCTCCCAGCTGATGAATTCGACTCCTCGAGTAAACAAATTTTCCTAATCTTTCTGTTCAAGCGCCATCTAC,0.506
6,GATGATTGTTCTCCCAGCTGATGAATTACCCGTGTCGAGTAAACAAATTTTCCTAATCTTTCTGTTCAAGCGCCATCTAC,0.311
7,GATGATTGTTCTCCCAGCTGATGAATTGAGGCAATCGAGTAAACAAATTTTCCTAATCTTTCTGTTCAAGCGCCATCTAC,2
8,GATGATTGTTCTCCCAGCTGATGAATTTTGATGCTCGAGTAAACAAATTTTCCTAATCTTTCTGTTCAAGCGCCATCTAC,1.44
9,GATGATTGTTCTCCCAGCTGATGAATTAAGTACGTCGAGTAAACAAATTTTCCTAATCTTTCTGTTCAAGCGCCATCTAC,0.451
10,GATGATTGTTCTCCCAGCTGATGAATTTCTTGGATCGAGTAAACAAATTTTCCTAATCTTTCTGTTCAAGCGCCATCTAC,0.195
11,GATGATTGTTCTCCCAGCTGATGAATTGTTACGGTCGAGTAAACAAATTTTCCTAATCTTTCTGTTCAAGCGCCATCTAC,0.947
12,GATGATTGTTCTCCCAGCTGATGAATTTCCTAAATCGAGTAAACAAATTTTCCTAATCTTTCTGTTCAAGCGCCATCTAC,0.188
13,GATGATTGTTCTCCCAGCTGATGAATTAAGTTGCTCGAGTAAACAAATTTTCCTAATCTTTCTGTTCAAGCGCCATCTAC,1.63
14,GATGATTGTTCTCCCAGCTGATGAATTCGGGGAATCGAGTAAACAAATTTTCCTAATCTTTCTGTTCAAGCGCCATCTAC,0.248
15,GATGATTGTTCTCCCAGCTGATGAATTATGCCTCTCGAGTAAACAAATTTTCCTAATCTTTCTGTTCAAGCGCCATCTAC,6.22
